Source: PubChem BioAssay AID1345082 (National Center for Advancing Translational Sciences (NCATS), 2018)
Among all 94,000 compounds or so, about 4,000 (4.3%) were called active. Inconclusive results, whose numbers are uncertain, are shown with a selection of clear calls. Calls come from the whole dose curve; as a rule, active = well fitted inhibition curve with a large enough effect; inconclusive = small, poorly fitted or top-dose-only effect; inactive = no such curve, though single readings can be large or run the other way. Where the call is inconclusive, the potency comes from a doubtful curve fit.

experiment: Cytotoxic Profiling in NIH 3T3 Cell Line of Diverse Libraries Using Quantitative High-Throughput Screening; conditions: NIH 3T3 viability, CellTiter-Glo ATP luminescence, 48-72 h; series mostly up to 96.7 µM; note: nearly all actives have a fitted effect of over 55% in size
In short: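 First NIH 3T3 cells are plated at 400 cells/well; next compound is pinned in; then plates incubate 48 or 72 hr at 37 °C; finally CellTiter-Glo is added and luminescence read after 10 min.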
Potency is the fitted concentration of half-maximal effect; tags give direction and shape of the fitted curve.

| SMILES | Potency |
| --- | --- |
| O=C(Nc1ccccc1)c1nc2c(o1)CCN(Cc1ccc(F)c(Cl)c1)CC2 | inconclusive: 44.7 µM [inhibitor, partial curve] |
| O=C(Nc1ccc2ncnc(N3CCCCC3)c2c1)c1ccc(F)cc1F | inconclusive: 39.8 µM [inhibitor, partial curve] |
| CCOc1ccc(C(=O)NC2CCCN(c3cc(-c4ccccc4)[nH]n3)C2)cc1OCC (stereo unspecified) | inconclusive: 5.01 µM [inhibitor, full curve, poor fit] |
| COc1cccc(NC(=O)Cc2c[nH]c3ncc(-c4cccnc4OC)cc23)c1 | active: 28.2 µM |
| COc1cc(=O)n2c(c1C(=O)Nc1ccc(C#N)cc1)CCCC2 | inactive |
| CC(=O)Nc1ccc(S(=O)(=O)N[C@H]2CO[C@H]3[C@@H]2OC[C@@H]3Nc2nccc(-c3cccc(F)c3)n2)cc1 | inconclusive: 44.7 µM [inhibitor, partial curve, poor fit] |
| CC1=C(C(=O)OC(C)C)C(c2ccccc2Cl)CC(=O)N1Cc1cccc(F)c1 (stereo unspecified) | inconclusive: 50.1 µM [inhibitor, partial curve, poor fit] |
| CCCN1C(=O)Cc2cc(C(=O)NCc3ccc(C)c(C)c3)ccc21 | inconclusive: 50.1 µM [inhibitor, single point] |
| Cc1ccc(NC(=O)C2Cn3cccc3C(=O)N2)cc1F (stereo unspecified) | inactive |
| COc1ccc(CN2C[C@H]3CN(Cc4ccccc4)CCN3C2=O)cc1 | inconclusive: 89.1 µM [inhibitor, single point] |
| CCC1C(=O)NCCN1Cc1cn(-c2cccc(F)c2)nc1-c1ccc(C)o1 (stereo unspecified) | inconclusive: 79.4 µM [inhibitor, single point] |
| Cc1ccc(-n2nc(C)c([C@@H]3C=C[C@@H](NC(=O)c4cccs4)C3)c2C)cc1Cl | inconclusive: 39.8 µM [inhibitor, partial curve, poor fit] |
| O=C(NC1CCN(c2ccnc3ccnn23)C1)c1cncc(Br)c1 (stereo unspecified) | inconclusive: 35.5 µM [inhibitor, partial curve, poor fit] |
| O=C(Cc1ccccc1Cl)N1CCC[C@H]1c1nc(-c2ccccc2)no1 | inconclusive: 50.1 µM [inhibitor, partial curve, poor fit] |
| O=C(NCc1cccc(C(F)(F)F)c1)c1ccc2nnc(C3CCCC3)n2c1 | inconclusive: 39.8 µM [inhibitor, partial curve, poor fit] |
| CCCCNC(=O)c1ccc(CN2C(=O)NC3(CCS(=O)(=O)CC3)C2=O)cc1 | inactive |
| Cc1ccc(C2=NC3(CCN(C(=O)c4cc(Cl)ccc4F)CC3)ON2)cc1 | inconclusive: 50.1 µM [inhibitor, partial curve, poor fit] |
| Cc1c(CN2CCCC(c3ccc(C(=O)O)cc3)C2)cnn1C (stereo unspecified) | inactive |
| C=CCN(Cc1cccc(OCC(N)=O)c1)Cc1ccccc1C | inconclusive: 79.4 µM [inhibitor, partial curve, poor fit] |
| Cc1cc(=O)n(CC(=O)Nc2ccc(C)c(Cl)c2)c(N2CCOCC2)n1 | inconclusive: 11.2 µM [inhibitor, full curve, poor fit] |
| Cn1cc(CC(=O)N2CCCc3ncc(C(=O)Nc4cccc(F)c4)cc32)c2ccccc21 | inconclusive: 44.7 µM [inhibitor, partial curve, poor fit] |

| SMILES | Potency |
| --- | --- |
| COc1ccc(Cl)cc1-c1ccc2c(c1)C(=O)N1CCN(C(=O)COc3ccccc3)C[C@@H]1C(=O)N2 | inconclusive: 79.4 µM [inhibitor, partial curve, poor fit] |
| Cc1ccc(S(=O)(=O)N2CC(c3noc(-c4cccnc4)n3)C2)cc1Cl | inactive |
| O=C(NC1CCN(c2ccc3nnc(-c4ccccc4)n3n2)CC1)c1ccc(Cl)cc1 | inconclusive: 35.5 µM [inhibitor, partial curve, poor fit] |
| CN1CCCC1COc1ccc2c(n1)CN(Cc1ccc(C(F)(F)F)cc1)C(=O)CO2 (stereo unspecified) | inconclusive: 89.1 µM [inhibitor, single point] |
| CNC(=O)c1cc(C)nc2onc(C3CCN(C(=O)Nc4ccccc4)C3)c12 (stereo unspecified) | inactive |
| CC(=O)N1C[C@@H](C(=O)NCc2cccs2)[C@H](c2nc(C)no2)C1 | inactive |
| O=C(NC1CCOCC1)C1CCCCN1Cc1ccc(-c2cccs2)cc1 (stereo unspecified) | inconclusive: 35.5 µM [inhibitor, partial curve] |
| c1ccc(-c2ccccc2CN[C@@H]2C[C@@H]3CO[C@H](c4ccccc4)C[C@@H]3C2)cc1 | active: 17.8 µM |
| C#CCNC(=O)C1CCCN1c1nccc(Nc2ccc(C)cc2)n1 (stereo unspecified) | inactive |
| O=C(NCc1ccnc2[nH]ccc12)c1cccc(Cl)c1 | inconclusive: 56.2 µM [inhibitor, partial curve, poor fit] |
| COc1ccccc1-c1nc(C2CC(=O)N(c3ccc(C)cc3)C2)no1 (stereo unspecified) | inconclusive: 44.7 µM [inhibitor, partial curve, poor fit] |
| COc1ccc(CN2C(=O)CO[C@H]3CN(Cc4cccnc4)C[C@H]32)cc1 | inactive |
| O=C(CN1C(=O)NC(c2ccc(Cl)cc2)C2=C1COC2=O)Nc1ccc2c(c1)OCO2 (stereo unspecified) | inconclusive: 44.7 µM [inhibitor, partial curve, poor fit] |
| Cc1ccc(S(=O)(=O)N2CCC(CCC(=O)NC3CCS(=O)(=O)C3)CC2)cc1 (stereo unspecified) | inconclusive: 70.8 µM [inhibitor, single point] |
| Cc1cccc(C(=O)N2CCCCCC2c2nnc(-c3ccccc3)o2)c1 (stereo unspecified) | inconclusive: 56.2 µM [inhibitor, partial curve, poor fit] |
| Cc1cc2nc3n(c(=O)c2n1CC(=O)Nc1cccc(C#N)c1)CCCCC3 | inconclusive: 70.8 µM [inhibitor, single point] |
| CS(=O)(=O)NC1CCCN(c2cc(N3CCCC3)ncn2)C1 (stereo unspecified) | inactive |
| COc1cc(-c2ccnc3nc(C4CC4)nn23)cc(OC)c1OC | inconclusive: 70.8 µM [inhibitor, single point] |
| CN(C)[C@@H]1CN(C2CCCCCC2)CC[C@@H]1CO | inactive |
| COc1ccc(/C=C/c2ccc3c(c2)C(=O)N2C[C@@H](NC(=O)CC(C)(C)CC(=O)O)C[C@H]2C(=O)N3)cc1 | inconclusive: 79.4 µM [inhibitor, partial curve] |
